Screen size: about 310,000 compounds; about 2,200 (0.71%) showed an effect of 50% or more. The effect is printed as a negative number. Some of the results follow.
Molecular target: human ether-à-go-go-related gene (hERG) potassium channel (human, UniProt Q12809)
Assay: primary screen, population patch clamp on CHO cells stably expressing hERG

Chain of human ether-à-go-go-related gene (hERG) potassium channel (Q12809 whole entry, looked up): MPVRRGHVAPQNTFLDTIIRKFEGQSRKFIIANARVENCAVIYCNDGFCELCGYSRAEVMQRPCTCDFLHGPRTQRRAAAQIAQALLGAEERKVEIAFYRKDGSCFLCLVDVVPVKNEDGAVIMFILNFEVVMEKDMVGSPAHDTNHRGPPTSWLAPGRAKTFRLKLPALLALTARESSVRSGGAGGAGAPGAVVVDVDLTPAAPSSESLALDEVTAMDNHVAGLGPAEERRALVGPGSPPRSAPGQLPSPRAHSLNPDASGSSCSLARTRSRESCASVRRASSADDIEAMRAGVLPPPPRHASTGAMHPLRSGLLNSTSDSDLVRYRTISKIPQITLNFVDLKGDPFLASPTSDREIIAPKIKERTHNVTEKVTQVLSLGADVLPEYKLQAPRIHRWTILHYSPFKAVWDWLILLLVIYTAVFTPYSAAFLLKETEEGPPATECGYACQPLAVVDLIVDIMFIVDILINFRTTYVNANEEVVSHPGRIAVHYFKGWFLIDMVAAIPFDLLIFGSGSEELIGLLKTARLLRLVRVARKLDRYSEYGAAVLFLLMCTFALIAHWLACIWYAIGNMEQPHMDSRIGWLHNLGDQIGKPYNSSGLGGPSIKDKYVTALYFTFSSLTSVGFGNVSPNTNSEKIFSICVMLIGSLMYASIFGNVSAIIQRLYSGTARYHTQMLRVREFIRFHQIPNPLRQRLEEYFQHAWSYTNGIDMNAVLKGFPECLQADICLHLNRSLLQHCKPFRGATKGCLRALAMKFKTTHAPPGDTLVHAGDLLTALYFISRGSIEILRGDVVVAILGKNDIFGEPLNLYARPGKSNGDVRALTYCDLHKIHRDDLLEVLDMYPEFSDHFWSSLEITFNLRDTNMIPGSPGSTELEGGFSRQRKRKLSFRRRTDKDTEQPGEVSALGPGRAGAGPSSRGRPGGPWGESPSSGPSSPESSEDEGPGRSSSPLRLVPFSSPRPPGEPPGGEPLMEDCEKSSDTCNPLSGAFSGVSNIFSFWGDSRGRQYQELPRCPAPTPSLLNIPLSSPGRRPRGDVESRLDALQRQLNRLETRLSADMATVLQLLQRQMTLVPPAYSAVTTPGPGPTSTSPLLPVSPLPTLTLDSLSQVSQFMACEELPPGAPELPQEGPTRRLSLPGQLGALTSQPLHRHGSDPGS

Compound | hERG current change (%, negative = inhibition) at 1uM
COc1cc2c(cc1OC)CN(C(=O)c1ccncc1)CC2 | 5.7%
CCC(C)OC1OC(CO)C(O)C(O)C1NC(C)=O (stereo not shown) | 12.5%
COc1c(C)cc(C(=O)C2CCCN(Cc3ccccn3)C2)cc1C (stereo not shown) | 13.6%
O=S(=O)(c1ccc(NC(=S)NN=C(C2CC2)C2CC2)cc1)N1CCOCC1 | 9.57%
O=C(O)c1ccc(-c2sc(Nc3ccccc3)n[n+]2-c2ccc(F)cc2)cc1.[Cl-] | 7.38%
COc1cc(CNc2ccc3[nH]c(=O)[nH]c3c2)ccc1OCc1c(F)cccc1Cl | 9.91%
O=C(Nc1ccc(N2CCCC2)cc1)C(Cl)c1ccccc1 (stereo not shown) | -4.91%
CN=C1S/C(=C\c2ccc(N3CCOCC3)cc2C)C(=O)N1C | 16.2%
CCn1c(O)c(N=NC(=O)CNC(=O)/C=C/c2ccco2)c2ccccc21 | 5.63%
Cc1cc(C)c(C#N)c(Nc2ccccc2)n1 | 5.59%
CCc1cc(=O)oc2cc(C)cc(OC(C)C(=O)NCC(O)c3ccccc3)c12 (stereo not shown) | 8.7%
COc1cc(OC)cc(C(=O)NNC(=S)NC(=O)c2cccnc2)c1 | 12.9%
Cc1cc(Br)ccc1NC(=O)CN(C)C(=O)c1cc([N+](=O)[O-])ccc1N1CCOCC1 | -1.68%
CCOc1ccc(OCC)c(NC(=O)C2CCN(S(=O)(=O)c3c(C)[nH]c(=O)[nH]c3=O)CC2)c1 | 10.6%
CC(=O)c1ccc(OCCCC(=O)Nc2cc(Cl)ccc2-n2cncn2)cc1 | -6.8%
Cc1c(CCC(=O)O)c(=O)n2c([nH]c3ccccc32)c1C#N | -2.51%
COC(=O)c1[nH]c2ccc(Cl)cc2c1NC(=O)C1CC1 | 9.95%
CC(=O)c1c(C)nn(CC(O)COc2ccc3c(c2)CCC3)c1C (stereo not shown) | 15.7%
Cc1ccsc1/C=N/N1CCN(Cc2ccccc2)CC1 | 12.3%
O=C1c2ccccc2C(=O)N1CC(O)COc1ccccc1Cl (stereo not shown) | 12.1%
CS(=O)(=O)N1CCN(C(=O)Cc2cccs2)CC1 | 19.4%
CC(C)(C)NC(=O)C(c1c[nH]c2ccccc12)N(C(=O)Cn1nnc(-c2ccc(Cl)cc2)n1)c1ccccc1F (stereo not shown) | 10.2%

Compound | hERG current change (%, negative = inhibition) at 1uM
Cc1ccc(CN2C(=O)CC(Nc3ccc(N4CCOCC4)cc3)C2=O)cc1 (stereo not shown) | 13.9%
O=C(Nc1nc2ccccc2s1)C1CCCN1S(=O)(=O)c1ccc(Cl)cc1 (stereo not shown) | 8.38%
COCCn1nnnc1CN1CCC(NC(=O)Nc2cccc(OC)c2)CC1 | 10%
COc1ccc(NC(=O)CSc2ncnc3c2cnn3CCc2ccccc2)cc1 | 4.35%
Cc1c(CNCCc2ccc(Cl)cc2)c(C(=O)O)c(C)n1Cc1ccccc1 | -0.847%
CCN(C(=O)COC(=O)/C=C/c1c(C)nn(Cc2ccc(C)cc2)c1C)C1CCS(=O)(=O)C1 (stereo not shown) | 13.9%
CCOC(=O)Cc1cnc(NC(=O)CSc2nc(N)cc(=O)[nH]2)s1 | 8.9%
CCC(=O)NC(Nc1ncc(C)s1)(C(=O)OC)C(F)(F)F (stereo not shown) | -2.89%
COC(=O)C1=C(C(=O)c2ccccc2)C(c2ccc(O)c(OC)c2)n2nnnc2N1 (stereo not shown) | 15.2%
O=C(CC1SC(=NCCc2ccccc2)N(/N=C/c2cccs2)C1=O)Nc1ccc(Cl)cc1 (stereo not shown) | 16.7%
COc1ccc(C2(C(=O)Nc3ccc(S(=O)(=O)Nc4nc(C)cc(C)n4)cc3)CCCC2)cc1OC | 5.84%
O=C(CSc1nc2ccc(Cl)cc2[nH]1)Nc1ccc2c(c1)CCC2 | 7.09%
CCN(CC)C(=O)CC(c1ccc(N(C)C)cc1)c1c(OC)cc(OC)c2ccc(=O)oc12 (stereo not shown) | 4.86%
FC(F)(F)c1ccncc1-c1nnnn1-c1ccc(Cl)cc1 | -6.85%
COc1ccccc1/C=C/CN1CCSCC1 | 8.05%
Fc1ccc(COc2ccc(-c3nnco3)cc2)c(Cl)c1 | 8.13%
O=c1[nH]c(=S)n(CCC2=CCCCC2)c(O)c1/C=N/Nc1ccccc1 | 3.99%
O=C(NCCN1CCCCC1)/C(=N\O)c1ccccc1 | 10.5%
CCCCN(CC)CCNC(=O)CN(C)S(=O)(=O)c1ccc2c(c1)c(=O)n(C)c(=O)n2C | 6.94%
COc1ccc(OC)c(NC(=O)Cn2c(=O)n(CC3CCCO3)c(=O)c3cc(OC)c(OC)cc32)c1 (stereo not shown) | 7.48%
O=C1CCC(C(=O)NCCN2C(=O)S/C(=C\c3cccnc3)C2=O)=NN1 | 4.89%
COc1cccc(OCC(O)CN2CCC(CN3C(=O)c4cccc5cccc(c45)C3=O)CC2)c1.Cl (stereo not shown) | -41%

Compound | hERG current change (%, negative = inhibition) at 1uM
Cc1cc(NC(=O)CC2CCCC2)ccc1Br | 15.1%
COc1ccc(-c2cc(C(=O)NCCCN3CCOCC3)c3cc(C(C)C)ccc3n2)cc1 | 14.7%
Cc1ccc([N+](=O)[O-])c(OCCCNCC(C)O)c1.O=C(O)C(=O)O (stereo not shown) | 4.78%
COc1cccc(/C=N/NC(=O)NC2CCCCC2)c1O | 1.35%
COC(=O)c1nn(-c2ccccc2)c(Cl)c1/C=N/O | 5.24%
CC(=O)/C=C1\N(C)c2ccc(C)cc2C1(C)C | 13.7%
O=C(NCc1cccnc1)C1CC(c2cccc(Br)c2)=NO1 (stereo not shown) | 11.7%
Cc1cccc(N2CCN(c3ccc4cc(S(=O)(=O)N5CCCCC5)ccc4n3)CC2)c1C | 24.4%
CCOc1ccc(CC(=O)Nc2ccc(S(=O)(=O)Nc3cc(C)on3)cc2)cc1OCC | 10%
COc1cccc(-c2nn(-c3ccccc3)cc2CN(C)C(C)c2ccon2)c1 (stereo not shown) | 12.1%
COC(=O)c1ccc(OC(=O)CCS(=O)(=O)c2ccc(C)cc2)cc1 | 2.05%
NNC(=O)c1ccc(S(=O)(=O)N2CCc3ccccc32)cc1 | 9.63%
Cl.O=C(NCCCn1ccnc1)c1ccc(F)cc1 | 8.24%
CCOc1ccc(NC(=O)CCNc2c(N3CCCC3)c(=O)c2=O)cc1 | 11.5%
CC(C)c1[nH]nc2c1C(c1cccs1)C(C#N)=C(N)O2 (stereo not shown) | 19.1%
COc1ccc(/C(N)=N/OC(=O)N2CCOCC2)cc1 | -16.2%
O=C(NNC(=O)c1cc(Cl)ccc1[N+](=O)[O-])c1csc(N2CCOCC2)n1 | 15.3%
O=C(Nc1cccc(C(F)(F)F)c1)c1ccc(Cn2cc(Br)cn2)o1 | -1.53%
Cn1c(N)c(C(=O)Nc2ccccc2)c(=O)[nH]c1=O | 19%
Cc1cc(SCC(=O)NCCN2C(=O)CSC2=O)nc2ccccc12 | 10.2%
CCC(C)NC(=O)Cn1c(COc2ccc(Cl)cc2Cl)nc2ccccc21 (stereo not shown) | 10.7%
CCc1ccccc1-n1nnc(-c2ccccc2)n1 | 7.29%

Compound | hERG current change (%, negative = inhibition) at 1uM
CCCCNC(=O)c1ccc(NS(=O)(=O)c2ccccc2)cc1 | 19.4%
CCC(CO)NCc1cc(OC)c(OCC(=O)NCCc2ccccc2)cc1Br (stereo not shown) | 5.45%
CCC1CCCCN1C(=O)CSc1nc(N)c(NC(=O)c2ccc(OC)c(OC)c2)c(=O)[nH]1 (stereo not shown) | 14.8%
Cc1ccc(-n2c(-c3ccc(Cl)cc3)n[nH]c2=S)cc1 | 9.84%
Cn1c(=O)c2[nH]c(-c3ccc(S(=O)(=O)O)cc3)nc2n(C)c1=O.O | 11.2%
CC(=O)Nc1cccc(C(=O)N(Cc2ccccc2)Cc2ccccc2)c1 | 15.1%
CC(=O)Nc1ccc2oc(-c3ccccc3)nc2c1 | 16.1%
COc1ccc(C(=O)Nc2cc(OC)ccc2OC)cc1 | 13.8%
COc1cc(O)c(C(CCN2CCCCC2)c2ccc3c(c2)OCO3)c(OC)c1 (stereo not shown) | -72.1%
COC(=O)c1nc(NC2=NCCCCC2)n[nH]1 | 10.4%
CC1(C)CC(OC(=O)c2ccccc2)CC(C)(C)N1 | 9.89%
COc1ccc2nc(C)cc(N/N=C/c3ccccc3)c2c1 | 5.19%
CCOc1ccccc1C(=O)NCC(=O)Nc1ccc2c(c1)OCO2 | 8.79%
CCS(=O)(=O)c1ccc(NC(=O)c2ccccc2Cl)c(O)c1 | 4.15%
COc1ccccc1NS(=O)(=O)c1cc(NC(=O)c2ccc3c(c2)OCCO3)ccc1C | 8.49%
Nc1c(S(=O)(=O)c2ccccc2)c2nc3ccccc3nc2n1/N=C/c1cccc(O)c1 | 10.4%
COC(=O)C1CSC(c2ccc(Cl)cc2)N1C(=O)c1ccccc1 (stereo not shown) | 0.633%
O=c1[nH]c2cc3c(cc2cc1C(c1nnnn1CC1CCCO1)N1CCCC1)OCO3 (stereo not shown) | 15.4%
COC(=O)c1c(C)[nH]c(C(=O)OCC(=O)N2c3ccccc3NC(=O)C2(C)C)c1C | 7.72%
CCCc1cnc(N2CCN(S(=O)(=O)c3cccs3)CC2)nc1 | 6.84%
O=C(O)c1ccc(NC(=O)c2cccc(NC(=O)c3cccs3)c2)cc1 | -0.166%
CCN(CC)CCOC(=O)c1ccccc1Br.Cl | 7.4%

Reference: article PMC4336329 (PLoS ONE, 2015)
